This note sets out measurements from the antibiotic and cytotoxicity screens of Wong et al. (2023).

Some of the results follow.

Test [1] deals with HSkMC (human skeletal muscle cells). Description: cytotoxicity call (relative viability < 0.9). The following applies: 10 µM.
Test [2] deals with HepG2. Description: cytotoxicity call (relative viability < 0.9). The note with it: 10 µM.
Test [3] deals with S. aureus RN4220. The test is described as follows: growth inhibition call (relative growth <= 0.2). The note with it: 50 µM.

For `CN(C)CC(=O)N1CC(=O)N2[C@@H](CO)[C@@H](c3ccc(C#Cc4cccnc4)cc3)[C@@H]2C1`, the cytotoxicity call in test [1] and in test [2] was “inactive” in each case. In addition, the growth inhibition call in test [3] was “inactive”.
Turning to `CCCNC(=O)Nc1ccc2c(c1)C(=O)N(C)C[C@@H](OC)[C@H](C)CN(Cc1ccc(-c3ccccn3)cc1)[C@@H](C)CO2`, the cytotoxicity call in test [1] and in test [2] was “inactive” in each case. The growth inhibition call in test [3] is “inactive”.
With `COc1ccccc1/C=C/C=C1/C(=O)N(c2cc(C)cc(C)c2)[C@@H](c2cccc([N+](=O)[O-])c2)S1(=O)=O`, the cytotoxicity call in test [1] and in test [2] was “inactive” in each case. Also, the growth inhibition call in test [3] is “inactive”.
In the case of `C[C@H]1CCCCO[C@H](CN(C)C(=O)Nc2ccc(F)cc2)[C@@H](C)CN([C@@H](C)CO)C(=O)c2cc(NC(=O)Nc3ccccc3)ccc2O1`, the cytotoxicity call in test [1] and in test [2] was “inactive” in each case. For the same molecule, the growth inhibition call in test [3] is “inactive”.
Consider `CN(C)c1nc(N(C)C)nc(N(C)C)n1`, for which the cytotoxicity call in test [1] and in test [2] was “inactive” each time. Moreover, the growth inhibition call in test [3] was “inactive”.
Consider `COc1ccc(S(=O)(=O)Nc2ccc3c(c2)C(=O)N([C@@H](C)CO)C[C@@H](C)[C@H](CN(C)C(=O)Nc2ccc4c(c2)OCO4)OCCCC[C@H](C)O3)cc1`, for which the cytotoxicity call in test [1] and in test [2] was “inactive” in each case. Further, the growth inhibition call in test [3] was “inactive”.
Regarding `C[C@H]1CCCCO[C@@H](CN(C)C(=O)Nc2ccccc2)[C@@H](C)CN([C@@H](C)CO)C(=O)c2cc(NC(=O)NC3CCCCC3)ccc2O1`, the cytotoxicity call in test [1] and in test [2] was “inactive” each time. Moreover, the growth inhibition call in test [3] is “inactive”.
Take `COc1cc(O)c2c(=O)c(O)c(-c3ccc(O)c(O)c3)oc2c1`: the cytotoxicity call in test [1] and in test [2] was “inactive” in each case. In test [3], the growth inhibition call was “inactive”.
For `C[C@H]1CN([C@@H](C)CO)C(=O)Cc2cc(NC(=O)CCCCCC(=O)Nc3ccccc3N)ccc2O[C@H]1CN(C)Cc1ccc(C(F)(F)F)cc1`, the cytotoxicity call in test [1] and in test [2] was “inactive” in each case. The growth inhibition call in test [3] was “inactive”.
Turning to `Cc1ccc(S(=O)(=O)N(C)C[C@H]2Oc3ccc(NS(=O)(=O)c4c(C)noc4C)cc3CC(=O)N([C@H](C)CO)C[C@H]2C)cc1`, the cytotoxicity call in test [1] and in test [2] was “inactive” each time. In addition, the growth inhibition call in test [3] was “inactive”.
Take `O=C(O)CCCCCCCCCCCC[C@@H]1C=CCC1`: the cytotoxicity call in test [1] and in test [2] was “inactive” throughout. The growth inhibition call in test [3] is “inactive”.
`O=C(C[C@@H]1C=C[C@@H](NS(=O)(=O)c2ccc(F)cc2)[C@H](CO)O1)NCCN1CCCCC1`: the cytotoxicity call in test [1] and in test [2] was “inactive” in each case. In addition, in test [3], the growth inhibition call was “inactive”.
Turning to `COCC(=O)Nc1ccc2c(c1)C(=O)N(C)[C@@H]1CC[C@H](CC(=O)NCc3ccccc3Cl)O[C@H]1CO2`, the cytotoxicity call in test [1] and in test [2] was “inactive” throughout. For the same molecule, in test [3], the growth inhibition call was “inactive”.
`CCCNC(=O)N[C@H]1CC[C@@H](CC(=O)N2CCN(C)CC2)O[C@@H]1CO`: the cytotoxicity call in test [1] and in test [2] was “inactive” each time. For the same molecule, in test [3], the growth inhibition call was “inactive”.
For the molecule `C[C@@H]1CCCCO[C@H](CN(C)CC2CCCCC2)[C@H](C)CN([C@H](C)CO)C(=O)c2cc(NC(=O)Nc3ccccc3)ccc2O1`, the cytotoxicity call in test [1] was “inactive”. Further, the cytotoxicity call in test [2] was “active”. The growth inhibition call in test [3] is “inactive”.
For `CN1C(=O)c2cc(NS(=O)(=O)c3cccc(F)c3)ccc2OC[C@@H]2O[C@H](CC(=O)NCCN3CCCCC3)CC[C@@H]21`, the cytotoxicity call in test [1] and in test [2] was “inactive” throughout. For the same molecule, the growth inhibition call in test [3] is “inactive”.
Take `Cc1noc(C)c1S(=O)(=O)Nc1ccc2c(c1)C(=O)N([C@@H](C)CO)C[C@H](C)[C@@H](CN(C)C(=O)Nc1cccc3ccccc13)OCCCC[C@H](C)O2`: the cytotoxicity call in test [1] and in test [2] was “inactive” each time. Also, in test [3], the growth inhibition call is “inactive”.
As for `C[C@@H]1CN([C@H](C)CO)C(=O)c2cc(NS(=O)(=O)c3cccs3)ccc2O[C@@H]1CN(C)S(=O)(=O)c1cn(C)cn1`, the cytotoxicity call in test [1] and in test [2] was “inactive” each time. The growth inhibition call in test [3] is “inactive”.
Take `CN(C)CC(=O)N1CC(=O)N2[C@@H](CO)[C@H](c3ccc(C#Cc4cccnc4)cc3)[C@@H]2C1`: the cytotoxicity call in test [1] and in test [2] was “inactive” in each case. The growth inhibition call in test [3] is “inactive”.
`COc1cc(C(=O)N2CCC(N3CCN(C)CC3)CC2)ccc1Nc1ncc2c(n1)N(C)c1ccccc1C(=O)N2C`: in test [1], the cytotoxicity call was “inactive”. For the same molecule, the cytotoxicity call in test [2] was “active”. Moreover, in test [3], the growth inhibition call is “inactive”.
Turning to `C[C@H](CO)N1C[C@H](C)[C@H](CN(C)S(=O)(=O)c2ccc(Cl)cc2)Oc2ccc(NS(=O)(=O)c3cn(C)cn3)cc2CC1=O`, the cytotoxicity call in test [1] and in test [2] was “inactive” in each case. The growth inhibition call in test [3] was “inactive”.
Consider `CC(C)C[C@H](NC(=O)[C@@H](NC(=O)CNC(=O)CN)C(C)C)C(=O)N[C@H](C(=O)N[C@@H](CCC(N)=O)C(=O)N1CCC[C@H]1C(=O)NCC(=O)O)C(C)C`, for which the cytotoxicity call in test [1] and in test [2] was “inactive” in each case. Further, the growth inhibition call in test [3] was “inactive”.
In the case of `C[N+](C)(C)CC(O)CC(=O)[O-]` (stereo not given), the cytotoxicity call in test [1] is “inactive”. In addition, in test [2], the cytotoxicity call was “active”. In test [3], the growth inhibition call is “inactive”.
For the molecule `C[C@@H]1CCCCO[C@@H](CN(C)S(=O)(=O)c2cccs2)[C@H](C)CN([C@@H](C)CO)C(=O)c2cc(NC(=O)NC3CCCCC3)ccc2O1`, the cytotoxicity call in test [1] and in test [2] was “inactive” each time. For the same molecule, the growth inhibition call in test [3] was “inactive”.
Turning to `C[C@@H]1CN([C@H](C)CO)C(=O)c2cccc(NC(=O)c3ccncc3)c2O[C@H]1CN(C)Cc1ccc(Oc2ccccc2)cc1`, the cytotoxicity call in test [1] and in test [2] was “inactive” in each case. Moreover, the growth inhibition call in test [3] was “inactive”.
